We go through 27 molecules from the antibiotic and cytotoxicity screens of Wong et al. (2023).

One experiment deals with HSkMC. As to the kind of experiment: cytotoxicity call (relative viability < 0.9). The note with it: 10 µM.
The test system of the next experiment is HepG2. As to the kind of experiment: cytotoxicity call (relative viability < 0.9). The note with it: 10 µM.
The test system of the next experiment is S. aureus RN4220. As to the kind of experiment: growth inhibition call (relative growth <= 0.2). Particulars: 50 µM.

Each structure is given as a SMILES string. The list shows a part of the results.

In the case of `COc1ccc([Si](C)(C)[C@H]2[C@H](CCO)O[C@@]3(C(=O)N(Cc4ccc(N5C(=O)c6ccccc6Oc6ccccc65)cc4)c4ccccc43)[C@@H]2C)cc1`, the cytotoxicity call in the experiment with HSkMC is “inactive”. In addition, in the experiment on HepG2, the cytotoxicity call was “active”. Also, the growth inhibition call in the experiment with S. aureus RN4220 was “inactive”.

`C[C@@H]1CN([C@@H](C)CO)C(=O)c2cccc(NC(=O)c3nc4ccccc4s3)c2O[C@H]1CN(C)CC1CCCCC1`: the cytotoxicity call in the experiment on HSkMC and with HepG2 was “inactive” each time. In the experiment with S. aureus RN4220, the growth inhibition call is “inactive”.

For the molecule `CCN(CCO)CCCOc1ccc2c(Nc3cc(CC(=O)Nc4cccc(F)c4)n[nH]3)ncnc2c1`, the cytotoxicity call in the experiment with HSkMC and in the experiment on HepG2 was “inactive” throughout. Further, the growth inhibition call with S. aureus RN4220 was “inactive”.

`Cc1noc(C)c1NC(=O)N(C)C[C@H]1OCCCC[C@@H](C)Oc2ccc(NC(=O)Nc3ccc4c(c3)OCO4)cc2C(=O)N([C@H](C)CO)C[C@@H]1C`: the cytotoxicity call in the experiment with HSkMC and in the experiment on HepG2 was “inactive” each time. The growth inhibition call in the experiment on S. aureus RN4220 was “inactive”.

In the case of `Cc1noc(C)c1NC(=O)Nc1ccc2c(c1)C(=O)N([C@H](C)CO)C[C@H](C)[C@@H](CN(C)Cc1ccc(C(F)(F)F)cc1)O2`, the cytotoxicity call in the experiment with HSkMC and in the experiment with HepG2 was “inactive” in each case. Besides, the growth inhibition call in the experiment on S. aureus RN4220 was “inactive”.

Consider `C[C@@H]1CN([C@@H](C)CO)C(=O)Cc2cc(NC(=O)Cc3cn(C)c4ccccc34)ccc2O[C@H]1CN(C)Cc1ccc(-c2ccccc2)cc1`, for which the cytotoxicity call in the experiment with HSkMC and in the experiment on HepG2 was “inactive” each time. Further, the growth inhibition call in the experiment on S. aureus RN4220 is “inactive”.

On to `COc1ccc(NC(=O)N(C)C[C@H]2OCCCC[C@H](C)Oc3ccc(NS(=O)(=O)c4ccc(F)cc4)cc3C(=O)N([C@H](C)CO)C[C@@H]2C)cc1`, for which the cytotoxicity call in the experiment on HSkMC and in the experiment on HepG2 was “inactive” each time. Moreover, the growth inhibition call in the experiment on S. aureus RN4220 was “inactive”.

Turning to `C[C@@H]1CCCCO[C@@H](CN(C)S(=O)(=O)c2ccc(Cl)cc2)[C@@H](C)CN([C@@H](C)CO)C(=O)c2cc(NC(=O)c3ccncc3)ccc2O1`, the cytotoxicity call in the experiment with HSkMC and in the experiment with HepG2 was “inactive” each time. For the same molecule, the growth inhibition call in the experiment with S. aureus RN4220 was “inactive”.

In the case of `Cc1noc(C)c1NC(=O)N(C)C[C@H]1Oc2ccc(NC(=O)C3CC3)cc2CC(=O)N([C@@H](C)CO)C[C@H]1C`, the cytotoxicity call in the experiment with HSkMC and with HepG2 was “inactive” throughout. Further, in the experiment on S. aureus RN4220, the growth inhibition call is “inactive”.

For `CC(C)CC#Cc1ccc2c(c1)O[C@H](CN(C)C(=O)NC1CCCC1)[C@@H](C)CN([C@H](C)CO)S2(=O)=O`, the cytotoxicity call in the experiment on HSkMC and in the experiment on HepG2 was “inactive” each time. In addition, the growth inhibition call with S. aureus RN4220 is “inactive”.

In the case of `CC(C)NC(=O)Nc1ccc2c(c1)CC(=O)N([C@@H](C)CO)C[C@H](C)[C@H](CN(C)Cc1ccc(C(=O)O)cc1)O2`, the cytotoxicity call with HSkMC and with HepG2 was “inactive” in each case. Also, in the experiment with S. aureus RN4220, the growth inhibition call is “inactive”.

In the case of `Cc1noc(C)c1NC(=O)N(C)C[C@H]1Oc2c(NC(=O)c3ccncc3)cccc2C(=O)N([C@H](C)CO)C[C@H]1C`, the cytotoxicity call with HSkMC and in the experiment on HepG2 was “inactive” throughout. Further, the growth inhibition call with S. aureus RN4220 was “inactive”.

As for `CNC(=O)c1cnn(-c2nc(N)c3ncn([C@@H]4O[C@H](CO)[C@@H](O)[C@H]4O)c3n2)c1`, the cytotoxicity call in the experiment on HSkMC and with HepG2 was “inactive” throughout. Besides, the growth inhibition call with S. aureus RN4220 was “inactive”.

For the molecule `Cc1ccc(S(=O)(=O)N(C)C[C@H]2Oc3ccc(NC(=O)Nc4ccc(C(F)(F)F)cc4)cc3C(=O)N([C@@H](C)CO)C[C@@H]2C)cc1`, the cytotoxicity call in the experiment on HSkMC and in the experiment on HepG2 was “inactive” each time. The growth inhibition call in the experiment on S. aureus RN4220 was “inactive”.

Turning to `C[C@H](CO)N1C[C@H](C)[C@@H](CN(C)C(=O)Nc2cccc3ccccc23)OCCCC[C@H](C)Oc2ccc(NC(=O)c3ccccc3)cc2C1=O`, the cytotoxicity call in the experiment with HSkMC and in the experiment on HepG2 was “inactive” in each case. For the same molecule, in the experiment with S. aureus RN4220, the growth inhibition call was “inactive”.

As for `C[C@@H]1CN([C@H](C)CO)S(=O)(=O)c2ccc(C#C[C@@H](C)O)cc2O[C@@H]1CN(C)C(=O)c1ccccc1`, the cytotoxicity call with HSkMC and in the experiment with HepG2 was “inactive” throughout. Further, the growth inhibition call in the experiment on S. aureus RN4220 was “inactive”.

`C[C@@H]1CN([C@@H](C)CO)C(=O)c2c(c3ccccc3n2C)-c2ccccc2CO[C@@H]1CN(C)Cc1ccc(C(=O)O)cc1`: the cytotoxicity call with HSkMC and in the experiment with HepG2 was “inactive” throughout. Besides, in the experiment on S. aureus RN4220, the growth inhibition call was “inactive”.

Turning to `COc1ccccc1NC(=O)N(C)C[C@H]1OCc2ccccc2-c2c(n(C)c3ccccc23)C(=O)N([C@@H](C)CO)C[C@@H]1C`, the cytotoxicity call in the experiment on HSkMC and in the experiment with HepG2 was “inactive” throughout. The growth inhibition call with S. aureus RN4220 was “inactive”.

For `C[C@@H]1CCCCO[C@H](CN(C)Cc2ccccc2)[C@H](C)CN([C@H](C)CO)C(=O)c2cc(NC(=O)Nc3ccc(F)cc3)ccc2O1`, the cytotoxicity call in the experiment with HSkMC and in the experiment on HepG2 was “inactive” each time. In addition, the growth inhibition call in the experiment on S. aureus RN4220 was “inactive”.

For `O=C(CN1CCN(S(=O)(=O)c2ccc(F)c(Cl)c2)CC1)N1CCNC1=O`, the cytotoxicity call in the experiment with HSkMC and in the experiment on HepG2 was “inactive” each time. Besides, the growth inhibition call in the experiment on S. aureus RN4220 was “inactive”.

In the case of `CO[C@H]1/C=C/C[C@H](C)[C@@H](C)S(=O)(=O)NC(=O)c2ccc3c(c2)N(C[C@@H]2CC[C@H]21)C[C@@]1(CCCc2cc(Cl)ccc21)CO3`, the cytotoxicity call in the experiment on HSkMC was “active”. For the same molecule, the cytotoxicity call in the experiment on HepG2 was “inactive”. In addition, the growth inhibition call in the experiment with S. aureus RN4220 is “inactive”.

As for `C[C@H]1CN([C@@H](C)CO)C(=O)c2cc(C#CCN(C)C)cnc2O[C@H]1CN(C)Cc1ccc2c(c1)OCO2`, the cytotoxicity call with HSkMC and with HepG2 was “inactive” in each case. The growth inhibition call in the experiment with S. aureus RN4220 is “inactive”.

On to `CNC(=O)c1c(O)c2ccccc2n(C)c1=O`, for which the cytotoxicity call in the experiment on HSkMC is “inactive”. Besides, the cytotoxicity call in the experiment on HepG2 is “active”. Also, in the experiment on S. aureus RN4220, the growth inhibition call was “inactive”.

As for `C[C@@H]1CN([C@@H](C)CO)S(=O)(=O)c2ccc(C#CC3(O)CCCC3)cc2O[C@H]1CN(C)C(=O)Cc1ccccc1`, the cytotoxicity call in the experiment on HSkMC and with HepG2 was “inactive” each time. In the experiment on S. aureus RN4220, the growth inhibition call is “inactive”.

Regarding `C[C@@H]1CN([C@H](C)CO)C(=O)Cc2cc(NC(=O)c3ccncc3)ccc2O[C@@H]1CN(C)C(=O)NC1CCCCC1`, the cytotoxicity call in the experiment on HSkMC and in the experiment with HepG2 was “inactive” in each case. Besides, the growth inhibition call in the experiment with S. aureus RN4220 was “inactive”.

`CC(C)NC(=O)N(C)C[C@H]1Oc2ccc(NC(=O)CCC(F)(F)F)cc2CC(=O)N([C@@H](C)CO)C[C@H]1C`: the cytotoxicity call in the experiment on HSkMC (human skeletal muscle cells) and in the experiment with HepG2 was “inactive” each time. Also, the growth inhibition call in the experiment on S. aureus RN4220 was “inactive”.

Take `CC(C)NC(=O)Nc1ccc2c(c1)C(=O)N([C@@H](C)CO)C[C@H](C)[C@@H](CN(C)Cc1ccc(Cl)c(Cl)c1)OCCCC[C@H](C)O2`: the cytotoxicity call with HSkMC and in the experiment with HepG2 was “inactive” throughout. The growth inhibition call in the experiment on S. aureus RN4220 was “inactive”.
